Assay results as given in the supplement of paper PMC12340641.
The full ranking holds about 1,000 compounds; the median of “relative growth in counter assay (no AraC = 100%, AraC + DMSO = 0%)” is about -1.1, and the highest 2% start at about 20. The list shows a part of the results.

Each compound was assayed on HEK293FT dCK*-only (assay: relative growth in counter assay (no AraC = 100%, AraC + DMSO = 0%); higher = more growth rescue independent of IKZF1). Settings: compound concentration: 5 uM; AraC concentration: 0.3 uM; overnight pretreatment + 4 days AraC.
Description: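 Growth recovery screen of the molecular-glue-like (Specs) library. HEK293FT cells expressing a dCK*-IKZF1 fusion (primary) or dCK* alone (counter) were pretreated overnight with compound at 5 uM, then given 0.3 uM AraC for 4 days. Hoechst nuclei were counted by imaging. Primary: normalised to pomalidomide (100%) and DMSO (0%), mean of 2 replicates. Counter: normalised to no-AraC (100%) and AraC+DMSO (0%), single replicate.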

Row | SMILES | relative growth in counter assay
1 | Cc1cc(C)nc(NS(=O)(=O)c2ccc(NC(=O)c3sc4nc5c(cc4c3N)CCC5)cc2)n1 | -3.64%
2 | Cc1cc(C)nc(NS(=O)(=O)c2ccc(NC(=O)c3ccccc3[N+](=O)[O-])cc2)n1 | -2.11%
3 | COc1ccc(S(=O)(=O)Nc2ccc(S(=O)(=O)Nc3ncccn3)cc2)cc1 | -4.6%
4 | Cc1cc(NS(=O)(=O)c2ccc(NC(=O)c3ccc(Br)cc3)cc2)nc(C)n1 | 13.4%
5 | Cc1ccc(C)c(OCC(=O)Nc2ccc(S(=O)(=O)Nc3ccccn3)cc2)c1 | -1.12%
6 | Cc1nc(Nc2cccc(C3CCCN3C(=O)COCCN3CCCC3=O)n2)sc1C (centres undefined) | 3.35%
7 | CCC(Oc1ccccc1)C(=O)Nc1ccc(S(=O)(=O)Nc2nc(C)cc(C)n2)cc1 (centres undefined) | -3.58%
8 | Cc1cc(NS(=O)(=O)c2ccc(NC(=O)c3cc4ccccc4o3)cc2)nc(C)n1 | -3.17%
9 | O=C1CCC(N2C(=O)c3ccc(C(=O)O)cc3C2=O)C(=O)N1 (centres undefined) | -11.1%
10 | CC(C)(N)C(=O)N1CCC(c2cccc(Nc3ncc(-c4cccnc4)s3)n2)CC1 | -23.8%
11 | Cc1cc(C)nc(NS(=O)(=O)c2ccc(NC(=O)c3ccc(C(C)(C)C)cc3)cc2)n1 | -6.45%
12 | COc1cc(NS(=O)(=O)c2ccc(NC(=O)c3ccc(C#N)cc3)cc2)nc(OC)n1 | 3.37%
13 | Cc1ncc(C(=O)N2CCOC(c3cccc(Nc4nc(C)c(C)s4)n3)C2)c(C)n1 (centres undefined) | -2.64%
14 | Cc1cnc(Nc2cccc(C3CN(C(=O)C(C)n4cnc5ccccc54)CCO3)n2)s1 (centres undefined) | -6%
15 | Cc1ccc(N2C(=O)c3ccc(Oc4ccc(N)cc4)cc3C2=O)cc1 | -5.81%
16 | O=C(Nc1ccc(S(=O)(=O)Nc2ncccn2)cc1)C1CC(=O)N(CCc2ccc(F)cc2)C1 (centres undefined) | -5.62%
17 | Cc1nc(C)c(C(=O)N2CCOC(c3cccc(Nc4ncc(C)s4)n3)C2)o1 (centres undefined) | -17%
18 | CN(Cc1ccccc1)[C@@H]1CCC[C@@H](n2cnc3c(N)nc(N)nc32)[C@@H]1O | -3%
19 | Cc1cc(C)nc(NS(=O)(=O)c2ccc(NC(=O)c3ccc(Cl)cc3)cc2)n1 | -0.52%
20 | COc1ccc(C(=O)Nc2ccc(S(=O)(=O)Nc3ncccn3)cc2)c(OC)c1 | -2.17%
21 | Cc1cccnc1Nc1nc(C2CCN(CC(N)=O)CC2)cs1 | -1.13%
22 | CC(C)Oc1ccc(C(=O)Nc2ccc(S(=O)(=O)Nc3ncccn3)cc2)cc1 | 3.6%
23 | Cc1cccc(C)c1OCC(=O)Nc1ccc(S(=O)(=O)Nc2ncccn2)cc1 | 3.62%
24 | COc1cc(NS(=O)(=O)c2ccc(NC(=O)Cc3ccccc3)cc2)nc(OC)n1 | 6.59%

Row | SMILES | relative growth in counter assay
25 | O=C(C1CCCCC1)N1CCC(c2cccc(Nc3nccs3)n2)CC1 | -10.8%
26 | CN1CCCc2cc(C(=O)N3CCCC3c3cccc(Nc4nccs4)n3)ccc21 (centres undefined) | 1.52%
27 | Cc1ccnc(NS(=O)(=O)c2ccc(NC(=O)COc3ccccc3)cc2)n1 | 1.02%
28 | CCCc1cnc(Nc2cccc(C3CCN(C(=O)C4CCCCN4CC(=O)O)CC3)n2)s1 (centres undefined) | -19.3%
29 | Cc1ccc(C)c2c1[nH]c1nc(SCC(=O)Nc3ccc(F)c(Cl)c3)nnc12 | -1.28%
30 | COc1cc(C(=O)Nc2ccc(S(=O)(=O)Nc3ncccn3)cc2)cc(OC)c1OC | 0.1%
31 | Cc1cc(NS(=O)(=O)c2ccc(NC(=O)C(C)(C)C)cc2)nc(C)n1 | -3.37%
32 | COc1ccccc1OCC(=O)Nc1ccc(S(=O)(=O)Nc2nc(C)cc(C)n2)cc1 | -7.04%
33 | COc1cccc(C(=O)Nc2ccc(S(=O)(=O)Nc3ncccn3)cc2)c1 | -5%
34 | Cc1cnc(Nc2cccc(C3CCN(CC(=O)N4CCC(C)CC4)CC3)n2)s1 | -9.8%
35 | O=C1CCC(N2C(=O)c3ccc(Br)cc3C2=O)C(=O)N1 (centres undefined) | -18%
36 | CC(=O)NC1(CC(=O)N2CCC(c3cccc(Nc4ncc(C)s4)n3)CC2)CCCCC1 | -16%
37 | Cc1ccc(C(C)C)c(OCC(=O)Nc2ccc(S(=O)(=O)Nc3ncccn3)cc2)c1 | 1.72%
38 | Cc1ccnc(NS(=O)(=O)c2ccc(NC(=O)CC(C)(C)C)cc2)n1 | -3.55%
39 | COCC(C)NC(=O)CN1CCC(c2cccc(Nc3nc(C)c(C)s3)n2)CC1 (centres undefined) | 25.6%
40 | Cc1ccnc(NS(=O)(=O)c2ccc(NC(=O)c3cccc(Cl)c3)cc2)n1 | 7.75%
41 | COc1ccc(C(=O)Nc2ccc(S(=O)(=O)Nc3ncccn3)cc2)cc1OC | -2.72%
42 | Cc1cc(NS(=O)(=O)c2ccc(NC(=O)CCCOc3ccccc3C)cc2)nc(C)n1 | 2.18%
43 | Cc1ccc(C)c(OCC(=O)Nc2ccc(S(=O)(=O)Nc3ccccn3)cc2)c1C | -3.75%
44 | Cc1cc(C)c2[nH]c3nc(SCC(=O)Nc4ccc(Cl)cc4)nnc3c2c1 | -17.9%
45 | Cc1cc(OCC(=O)Nc2ccc(S(=O)(=O)Nc3ccccn3)cc2)ccc1Cl | -2.95%
46 | CCCc1cnc(Nc2cccc(C3CCN(C(=O)Cn4c(CC(C)C)nc5ccccc54)CC3)n2)s1 | -2.22%
47 | Cc1cc(C)c(OCC(=O)Nc2ccc(S(=O)(=O)Nc3nc(C)cc(C)n3)cc2)c(C)c1 | 4.97%
48 | Cc1cnc(Nc2cccc(C3CCCN3C(=O)CCc3cccc(Cl)c3)n2)s1 (centres undefined) | 6.38%

Row | SMILES | relative growth in counter assay
49 | Cc1ccc(Nc2nc(C3CCCN3C(=O)/C=C/c3csc(C)n3)cs2)nc1 (centres undefined) | 11.1%
50 | Cc1cnc(Nc2cccc(C3CCN(CC(=O)Nc4c(F)cccc4F)CC3)n2)s1 | -16.6%
51 | COc1ccc(CC(=O)Nc2ccc(S(=O)(=O)Nc3nccc(C)n3)cc2)cc1 | -20.9%
52 | COc1ccc(C(=O)Nc2ccc(S(=O)(=O)Nc3cc(C)nc(C)n3)cc2)cc1 | -14%
53 | Cc1cc(OCC(=O)Nc2ccc(S(=O)(=O)Nc3ncccn3)cc2)cc(C)c1Cl | -3.02%
54 | Cc1cnc(Nc2ccc(C(=O)N3CCC=C(CCC(=O)NO)C3)cn2)s1 | -2.5%
55 | CC(=O)NC1(C(=O)N2CCC(c3cccc(Nc4ncc(C)s4)n3)CC2)CCCCC1 | -26.4%
56 | Cc1ccc(N2CC(C(=O)Nc3ccc(S(=O)(=O)Nc4ncccn4)cc3)CC2=O)cc1C (centres undefined) | -7.53%
57 | COc1cc(NS(=O)(=O)c2ccc(Nc3nc(-c4c(C)nc5ncccn45)cs3)cc2)nc(OC)n1 | 2.39%
58 | CC(=O)N1CCCC(c2csc(Nc3ccc(C)cn3)n2)C1 (centres undefined) | 2.06%
59 | CCCc1cnc(Nc2cccc(C3CCN(C(=O)[C@@H]4CCCN4CCO)CC3)n2)s1 | -20.6%
60 | Cc1cnc(Nc2cccc(C3(C(N)=O)CCN(C(=O)C4CCCCC4)CC3)n2)s1 | -22.4%
61 | COc1cc(NS(=O)(=O)c2ccc(NC(=O)COc3ccc(C)cc3)cc2)nc(OC)n1 | 0.81%
62 | Cc1cnc(Nc2cccc(CC3CCN(C(=O)Cn4c(CC(C)C)nc5ccccc54)CC3)n2)s1 | 4.17%
63 | O=C(Nc1ccc(S(=O)(=O)Nc2ccccn2)cc1)c1cccnc1 | 0.27%
64 | O=C(/C=C/c1ccccc1Cl)Nc1ccc(S(=O)(=O)Nc2ncccn2)cc1 | -21.8%
65 | Cc1nc(Nc2cccc(C3CN(C(=O)CCc4c(C)n[nH]c4C)CCO3)n2)sc1C (centres undefined) | 2.31%
66 | Cc1cnc(Nc2cccc(C3CCN(C(=O)C4CCN(C(C)C)CC4)CC3)n2)s1 | 11.2%
67 | Cc1cc(NS(=O)(=O)c2ccc(NC(=O)C3COc4ccccc4O3)cc2)nc(C)n1 (centres undefined) | -10.4%
68 | Cc1nc(Nc2cccc(C3CCCN3C(=O)CN3C(=O)NC(C)(C)C3=O)n2)sc1C (centres undefined) | 13%
69 | CCCCc1cnc(Nc2cccc(C3CCN(C(=O)C(C)(C)NC(=O)COC)CC3)n2)s1 | -10.6%
70 | CNC(=O)C(c1cccc(Nc2ncc(C)s2)n1)C1CCN(C(=O)C2CCCCC2)CC1 (centres undefined) | -1.15%
71 | Cc1cc(NS(=O)(=O)c2ccc(NC(=O)c3ccc(C)c(C)c3)cc2)nc(C)n1 | -8.28%
72 | O=S(=O)(Nc1ncccn1)c1ccc(-n2cnnn2)cc1 | -1.47%

Row | SMILES | relative growth in counter assay
73 | CCCc1cnc(Nc2cccc(C3CCN(C(=O)[C@@H](N)C(C)O)CC3)n2)s1 (some centres undefined) | -24.9%
74 | COCC(C)NC(=O)CN1CCC(c2cccc(Nc3ncc(C)s3)n2)CC1 (centres undefined) | -1.08%
75 | Cc1cc(C)nc(NS(=O)(=O)c2ccc(NC(=O)C34CC5CC(CC(C5)C3)C4)cc2)n1 | -0.65%
76 | O=C(Nc1ccc(S(=O)(=O)Nc2ccccn2)cc1)c1ccncc1 | 3.82%
77 | CCC(=O)Nc1ccc(S(=O)(=O)Nc2ncccn2)cc1 | 0.32%
78 | CC1CCc2cc(F)ccc2N1C(=O)CSc1nnc2c(n1)[nH]c1ccccc12 (centres undefined) | 6.61%
79 | CC(=O)Nc1ccc(Oc2ccc3c(c2)C(=O)N(c2ccc(C)cc2)C3=O)cc1 | 2.18%
80 | O=C1CCCN1CCOCC(=O)N1CCOC(c2cccc(Nc3nccs3)n2)C1 (centres undefined) | -1.14%
81 | COc1nccnc1NS(=O)(=O)c1ccc(NC(=S)NC(=O)/C=C/c2cccs2)cc1 | 8.21%
82 | O=C(CCCOc1ccccc1)Nc1ccc(S(=O)(=O)Nc2ncccn2)cc1 | 2.79%
83 | CCCOC(=O)Nc1ccc(S(=O)(=O)Nc2ncccn2)cc1 | 8.76%
84 | COc1cc(NS(=O)(=O)c2ccc(N3C(=O)C=CC3=O)cc2)nc(OC)n1 | -6.78%
85 | Cc1cc(NS(=O)(=O)c2ccc(NC(=O)COc3ccc(Cl)cc3C)cc2)nc(C)n1 | -2.52%
86 | Cc1ccnc(NS(=O)(=O)c2ccc(NC(=O)CC(C)C)cc2)n1 | -5.64%
87 | O=C1CCC(N2C(=O)c3cccc(NC[C@H]4CC[C@H](C(=O)O)CC4)c3C2=O)C(=O)N1 (some centres undefined) | 4.01%
88 | Cc1nc(Nc2cccc(C3CN(C(=O)c4cccc5cccnc45)CCO3)n2)sc1C (centres undefined) | 3.18%
89 | O=C(COc1ccccc1Cl)Nc1ccc(S(=O)(=O)Nc2ncccn2)cc1 | -4.17%
90 | COC(C)(C)C(=O)N1CCCC(c2csc(Nc3ccc(C)cn3)n2)C1 (centres undefined) | 3.45%
91 | Cc1cc(CCCC(=O)N2CCCC2c2cccc(Nc3nccs3)n2)ccc1F (centres undefined) | 1.98%
92 | O=C(CN1CCN(CCO)CC1)N1CCC(c2cccc(Nc3ncc(-c4ccccc4)s3)n2)CC1 | -16.3%
93 | Cc1ccnc(NS(=O)(=O)c2ccc(NC(=O)c3cc(Cl)ccc3Cl)cc2)n1 | 4.3%
94 | O=C1CCC(N2C(=O)c3cc(F)c(N4CCC(Cn5cc(C(=O)O)cn5)CC4)cc3C2=O)C(=O)N1 (centres undefined) | 10.8%
